In the RNAGym collection of RNA variant scans (doi:10.7554/elife.90254):
Read counts are not given, so values of variants with three or more changes are uncertain.

B1: LINE1-full (parent)
chain: UACGUAGGUGGUUUUCCCCUGAUAGUGCUAAGGGGGCCUGGAAGUUUGGACUGGGCAGAGCUCAACACAGCGUGGCAAAGUGGCUGUGGCUAGACUGCCUCUCUGGAUUCCUCGUCACUCAGCAGGGCAUCUCUGAGAGAAAUGCC

Variants of: B1
Assay: self-cleavage, relative activity (ratio to wild type); higher = more cleavage; in vitro, sequencing; the parent is a self-cleaving ribozyme

Variant	self-cleavage
U87A U115A G144A	0.17
A42G A140G U143A	0.84
U5A C131A A140G	0.44
A31G G34A U52C A141G	1.03
U12C U13C U39A A50G A129G	1.15
G34U A50U U81A U115A	1.59
A6U U23C U112A	2.3
G10A U20C A138G	1.65
U9C A24G U26C A124U A141G	0
G33U U47C A65G U85C U104C	0
U47A A50G U81C A121U	1.6
U9A U47A A64G A107G	0.31
U46C A121G A141G	2.22
U14C U73A C113U	1.22
A22U G33A A59G A65G U73C	0
G27U U112C A124U	0.62
G60A A92G U130C	0.16
G54A A79G A136U	0.6
U20C U62C U143A	0
U39C A77G G82A U87C A92G	0
U13C U45C A107G	1.02

Variant	self-cleavage
U14C A79G U130A	1.53
C16U A24U A59G A79G U132A	0.27
A2G U39C A64U A124G	0.23
A2U G33A A64U U108C A142G	0.8
U45C A50G U130C	1.02
U20C A30G G33A G40A A77U U100C A142G	0.79
A59G A64G A65G G88A C118A	0.05
U14C U62A U87C G126A	0.09
A2G U14C U104C	0
U20G C63U G75A U96A A107U	0.08
C3U A43U U47C A77G A129C	1.08
A2G G4A U12G U23C A77G	0.84
A77U U104A A136G	2.28
A30U A77G U102C	1.24
U13C U62C C76U A78G U134C	0.06
U9G A57U U108C A121G	0
U102C A117G A142G	0.66
U39C U46A U47A U87C U96C U132A	0
U115A A142G U143A	1.79
U14C A64U C118A A121U	0.36
A64U U102C U115C A140U	0.08

Variant	self-cleavage
U13G U134C A141G	0.92
A65C C99U U143A	0.04
U9A U29A G32U A64G	0.57
A57G A107G U119A	1.21
U87A A124U C133U	0.08
U52C U100C U102C	2.57
G36A A92C U119C	0.19
A57G G72U U130C	0.67
A2G U12A A50U A57C G72A	0.28
A57U A59U U73C A124G U130C	0
C56U A67G U81G C133A	0.05
U26G A31U U45C A77G	1.31
A69G U96A U119C A136G	0.09
A78G G83A U96A	0
A24G A124G G144A	1.39
C17U U46C C95U A121G	0.4
G32A A50G A77U G83U G139A	0.25
A6G U15C U85C	0.5
U26A A43G U52A U81A U102C U134C	1.99
U29C U112C A124U	1.74
U29C U47A A77G A129G A141G	1.9

Variant	self-cleavage
U13C U87C U134G	0.18
A6U U14C G53A U62G A129U	0.1
G60A A77U U87C A94G U108C	0.11
U15C U45C A59G	0.18
C71U U100C G114C	1.98
A31G A124G A142G U143A	1.05
U26A A138G U143C	2.26
U12C A30G U115C A142G	0.88
U12C G44A U96G A142G	0.03
U45A U100A A107U	0.94
C18A U20C U115A	0.98
U39C A50U A94G	0.53
C61A U62C U85C U87C G106U U115A A138G	0.02
U119A A124G U132C	1.46
A24G A77U U132C	1.42
G114A G125A A140G	1.33
U96A C131G C133U	0.03
U62A A117C A129G	0
G40A A50G U119A	0.72
U13C A43U A136G	1.76
